Source: the supplement of paper PMC12217912
This is one part of the list. Sequences were assembled here from the parent chain. Values near 0.05 are background.

B1: TEV protease; numbered along this chain (parent)
chain: MGESLFKGPRDYNPISSSICHLTNESDGHTTSLYGIGFGPFIITNKHLFRRNNGTLVVQSLHGVFKVKDTTTLQQHLVDGRDMIIIRMPKDFPPFPQKLKFREPQREERICLVTTNFQTKSMSSMVSDTSCTFPSGDGIFWKHWIQTKDGQCGSPLVSTRDGFIVGIHSASNFTNTNNYFTSVPKNFMELLTNQEAQQWVSGWRLNADSVLWGGHKVFMVKPEEPFQPVKEATQL

Variants of: B1
Experiment: raw area under fraction-flipped curve 0-4 h after induction (AUC4h, not background-subtracted), DNA-recorder readout of cleavage of the substrate (dimensionless); higher = more cleavage of the substrate by the protease variant
Conditions: temperature: 34 °C; time window: 0-4 h after rhamnose induction
Protocol: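 In vivo DNA recorder in E. coli TOP10(DE3) ΔrhaA at 34 °C. Each TEVp single-site mutant (parent TEVp 0) is paired with a single-site variant of the 7-mer TEVs (canonical ENLYFQ|S). The substrate sits between flexible linkers in a Bxb1-sfGFP-TEVs-SsrA fusion, so cleavage stabilises Bxb1 and speeds flipping of a recombination array, read by NGS. The value is the raw area under the fraction-flipped curve over 0-4 h after rhamnose induction (AUC4h), with ≥20 reads per time point. It is not background-subtracted; inactive controls average about 0.047.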
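Also: Bxb1 expression induced with 0.2% (w/v) L-rhamnose at OD600 near 0.5, cultures sampled hourly, flipped fraction per protease–substrate barcode pair counted by paired-end Illumina sequencing.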

| Variant | area with substrate ENAYFQS | area with substrate ENDYFQS | area with substrate ENHYFQS | area with substrate ENIYFQS | area with substrate ENNYFQS | area with substrate ENPYFQS | area with substrate ENQYFQS | area with substrate ENRYFQS | area with substrate ENSYFQS | area with substrate ENTYFQS | area with substrate ENCYFQS | area with substrate ENEYFQS | area with substrate ENFYFQS | area with substrate ENKYFQS | area with substrate ENMYFQS | area with substrate ENYYFQS | area with substrate ENVYFQS | area with substrate ENGYFQS | area with substrate ENWYFQS |
| --- | --- | --- | --- | --- | --- | --- | --- | --- | --- | --- | --- | --- | --- | --- | --- | --- | --- | --- | --- |
| T176W | 0.0605 | 0.0313 | 0.0673 | 0.0603 | 0.0766 | 0.0318 | 0.0689 | 0.0263 | 0.0541 | 0.0599 | – | – | – | – | – | – | – | – | – |
| K148P | 0.072 | 0.0613 | 0.0662 | – | – | 0.0547 | – | 0.0632 | – | 0.066 | 0.0738 | 0.0643 | 0.0813 | 0.0599 | 0.0565 | 0.0677 | – | – | – |
| K148F | 0.07 | 0.0629 | 0.0582 | – | – | – | 0.0702 | 0.0479 | – | – | 0.103 | 0.0602 | – | – | – | – | – | – | – |
| K148I | 0.0312 | 0.042 | – | 0.0937 | 0.0751 | 0.0584 | 0.055 | – | – | 0.0543 | 0.0583 | 0.0574 | 0.0681 | – | – | 0.0994 | 0.063 | – | – |
| T132R | 0.0522 | 0.0554 | 0.0484 | 0.0559 | – | 0.0373 | 0.0578 | 0.0538 | 0.0572 | 0.0451 | – | 0.0594 | 0.0645 | – | – | – | 0.0541 | – | – |
| P155C | 0.0627 | 0.0628 | – | 0.0664 | – | 0.0605 | – | – | 0.0654 | 0.0241 | – | 0.0594 | 0.0516 | 0.0522 | 0.0824 | – | – | 0.0557 | 0.0377 |
| D161T | 0.0502 | 0.0543 | 0.0654 | – | 0.0522 | 0.0732 | – | 0.0616 | – | 0.0707 | 0.0749 | 0.0523 | – | 0.0641 | 0.0549 | 0.0684 | – | 0.0607 | – |
| D161H | 0.0421 | 0.0514 | 0.071 | – | – | – | – | – | – | – | 0.0621 | 0.0394 | 0.0353 | 0.0607 | – | 0.0546 | 0.0722 | 0.0508 | 0.0212 |
| H143K | 0.0678 | 0.0545 | 0.0417 | – | – | – | 0.06 | 0.0509 | 0.0529 | 0.0403 | – | 0.0636 | 0.0823 | 0.0508 | 0.038 | – | 0.0858 | 0.0492 | 0.0527 |
| H143L | 0.0622 | 0.0602 | 0.0691 | – | 0.0653 | – | 0.0591 | 0.0538 | 0.0616 | – | – | – | 0.045 | 0.0667 | – | 0.0474 | 0.0608 | – | – |
| H143W | 0.0465 | 0.0627 | 0.0641 | 0.0619 | 0.0563 | 0.0635 | 0.0614 | 0.073 | 0.0592 | – | 0.0594 | 0.054 | 0.0618 | 0.0576 | – | 0.0555 | 0.0491 | 0.0627 | – |
| F163L | 0.0598 | 0.0631 | – | – | – | 0.0529 | 0.0511 | 0.051 | 0.0576 | – | 0.0699 | 0.0745 | 0.0539 | – | 0.07 | – | – | 0.0586 | – |
| F133Y | 0.0615 | 0.0688 | – | – | – | 0.0759 | 0.0747 | – | – | 0.0703 | 0.0638 | 0.0674 | 0.0669 | – | – | 0.0596 | 0.0852 | – | – |
| R160H | 0.0561 | 0.117 | – | – | 0.0588 | 0.068 | 0.063 | – | – | 0.0653 | 0.0824 | 0.0553 | 0.0834 | 0.0559 | – | – | 0.0751 | – | – |
| I145Y | 0.0642 | 0.058 | 0.0557 | 0.0651 | 0.0658 | 0.0571 | 0.0695 | 0.0587 | 0.0554 | 0.0592 | 0.0736 | 0.0627 | 0.0502 | 0.0574 | 0.0677 | – | 0.0494 | 0.0817 | 0.0725 |
| S154G | 0.0529 | 0.0731 | – | – | 0.0489 | – | 0.0586 | – | – | – | 0.0678 | 0.0774 | 0.0773 | 0.0663 | 0.0769 | 0.055 | 0.0562 | – | 0.054 |
| S154P | 0.0451 | 0.0655 | – | 0.0444 | 0.058 | – | – | 0.056 | – | 0.0632 | 0.0655 | 0.0652 | 0.0629 | 0.065 | 0.0564 | 0.0676 | – | 0.0642 | 0.0638 |
| G166P | 0.0521 | – | 0.0442 | 0.019 | 0.0417 | 0.0473 | 0.0468 | – | 0.0581 | 0.0685 | 0.0604 | – | – | – | 0.0452 | – | – | – | – |
| G166N | 0.0625 | – | 0.0599 | 0.0595 | 0.061 | – | 0.0633 | 0.0287 | – | 0.0474 | 0.0721 | 0.0596 | 0.0534 | 0.0546 | – | 0.0459 | 0.062 | – | – |
| W141G | 0.0485 | – | 0.0474 | 0.0588 | 0.049 | – | 0.0462 | 0.0418 | – | 0.0509 | 0.0555 | – | 0.0553 | 0.0433 | – | 0.0514 | 0.0598 | 0.0532 | 0.0588 |
| W141Q | 0.0526 | 0.0631 | – | – | 0.0531 | 0.0649 | 0.0532 | 0.0536 | 0.0551 | 0.0504 | 0.0686 | 0.0781 | 0.0607 | 0.0572 | – | – | 0.0491 | 0.0513 | – |
| N175Y | 0.0514 | – | 0.058 | – | 0.0601 | – | 0.0583 | 0.0719 | 0.0615 | 0.0587 | 0.0583 | 0.048 | – | – | – | – | 0.052 | 0.0647 | – |
| N175P | 0.0546 | 0.0532 | – | – | 0.0568 | – | 0.0728 | 0.0551 | 0.066 | 0.0641 | – | – | – | – | – | – | 0.0668 | – | 0.0515 |
| N175D | 0.0641 | 0.0618 | 0.051 | 0.0549 | 0.0519 | – | 0.0585 | – | 0.0462 | 0.0631 | 0.0635 | 0.0665 | – | 0.0745 | 0.0748 | 0.0554 | 0.0688 | 0.0628 | – |
| N175T | 0.0719 | 0.089 | – | 0.0654 | 0.0641 | 0.0656 | 0.0629 | – | – | 0.0616 | – | – | – | 0.0654 | 0.0705 | 0.0585 | – | 0.0529 | – |
| N175M | 0.0614 | 0.0429 | 0.061 | 0.0829 | – | 0.05 | 0.0544 | 0.0747 | 0.0667 | 0.0686 | 0.0642 | 0.0593 | 0.0518 | – | – | 0.0796 | – | 0.0432 | 0.0067 |
| Y179Q | 0.0535 | 0.0676 | 0.0811 | 0.0434 | 0.0612 | – | 0.0615 | 0.0547 | 0.0696 | 0.0615 | 0.059 | – | 0.0499 | 0.0671 | 0.062 | 0.0413 | 0.0499 | 0.0706 | – |
| Y179T | 0.057 | 0.054 | 0.0692 | – | 0.0647 | 0.0668 | 0.0649 | 0.0601 | – | – | 0.0733 | 0.0676 | 0.0542 | 0.0491 | – | 0.0625 | – | – | – |
